From PMC5620161, “Remarkably similar CTLA-4 binding properties of therapeutic ipilimumab and tremelimumab antibodies” (Oncotarget, 2017) come the findings set out here.

The data set deals with the molecule itself. The data set is described as follows: crystal structure; ipilimumab-scFv/CTLA-4 complex, 10 mg/mL, sitting drop, 18°C, 100 mM BICINE, 10% PEG 20000, 2% 1,4-Dioxane, pH 9.0; molecular replacement.

B1: ectodomain of human CTLA-4 ([…]) (domain or fragment)
chain: not shown
notes: CTLA-4, human, ectodomain, […] of […]; Homodimer held by a disulfide bond (non-reducing SDS-PAGE and crystal structure); Cloned into pET-21a; also called extracellular domain of CTLA-4
As usually defined, the stoichiometry N is a count of units in the complex or per binding partner. Turning to B1, the “stoichiometry N” value came out at 2.
